# Structures can show the parent of a compound that is named as a salt. ± gives the standard deviation of the averaged measurements. Some of the results follow.
# How the values were obtained:
# [1] = test system: murine small intestinal organoids (ENR+CD Paneth differentiation); experiment: cellular ATP (CellTiter-Glo 3D) relative to plate median (log10 fold change); higher = more viable cells; details: 6 d
# [2] = test system: murine small intestinal organoids (ENR+CD Paneth differentiation); experiment: carbachol-stimulated secreted lysozyme activity relative to plate median (log10 fold change); higher = more Paneth cell lysozyme secretion; details: 6 d, carbachol 10 µM
# [3] = test system: murine small intestinal organoids (ENR+CD Paneth differentiation); experiment: basal (non-stimulated) secreted lysozyme activity relative to plate median (log10 fold change); higher = more Paneth cell lysozyme secretion; details: 6 d
# 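Wherever basal (non-stimulated) secreted lysozyme activity relative to plate median is given: ISC-enriched organoid precursors grown as 2.5D pseudo-monolayer on Matrigel, compound given on day 0 and day 3, plate values LOESS-normalized before median fold change, three murine donors.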
# 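Wherever cellular ATP (CellTiter-Glo 3D) relative to plate median is given: 2.5D pseudo-monolayer culture of ISC-enriched organoids partly embedded atop Matrigel, compound added on day 0 and again on day 3, per-plate LOESS correction before median fold change.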
Structure (SMILES),cellular ATP (log10) ([1]; 0.08 µM),cellular ATP (log10) ([1]; 0.4 µM),cellular ATP (log10) ([1]; 2 µM),cellular ATP (log10) ([1]; 10 µM),carbachol-stimulated secreted lysozyme activity (log10) ([2]; 0.08 µM),carbachol-stimulated secreted lysozyme activity (log10) ([2]; 0.4 µM),carbachol-stimulated secreted lysozyme activity (log10) ([2]; 2 µM),carbachol-stimulated secreted lysozyme activity (log10) ([2]; 10 µM),basal (log10) ([3]; 0.08 µM),basal (log10) ([3]; 0.4 µM),basal (log10) ([3]; 2 µM),basal (log10) ([3]; 10 µM)
COc1ccc(C(=O)N2CCCC2=O)cc1 [Aniracetam],-0.0882 ± 0.14,0.112 ± 0.15,0.0545 ± 0.16,0.019 ± 0.082,0.048 ± 0.021,0.174 ± 0.13,-0.0799 ± 0.051,-0.0756 ± 0.1,0.0889 ± 0.072,0.0558 ± 0.075,0.0318 ± 0.1,0.012 ± 0.099
O=C(O)CNC(=O)c1c(O)c2ccccc2n(Cc2ccccc2)c1=O,0.149 ± 0.11,0.0776 ± 0.1,0.097 ± 0.17,0.000886 ± 0.052,0.0413 ± 0.025,0.0391 ± 0.086,-0.0113 ± 0.026,-0.0397 ± 0.11,0.0292 ± 0.02,0.0282 ± 0.097,0.0431 ± 0.036,-0.0445 ± 0.037
Cn1cc(C2=C(c3cn(C4CCN(Cc5ccccn5)CC4)c4ccccc34)C(=O)NC2=O)c2ccccc21,0.236 ± 0.13,0.475 ± 0.25,0.251 ± 0.087,-0.0812 ± 0.057,0.0932 ± 0.06,0.302 ± 0.29,0.0354 ± 0.079,-0.302 ± 0.08,0.0854 ± 0.0086,0.131 ± 0.065,0.0527 ± 0.076,-0.116 ± 0.031
Cc1cc2c(C(C)C)c(O)c(O)c(C=O)c2c(O)c1-c1c(C)cc2c(C(C)C)c(O)c(O)c(C=O)c2c1O,-0.198 ± 0.42,0.0186 ± 0.29,-0.216 ± 0.19,-0.0557 ± 0.073,0.0872 ± 0.12,0.0243 ± 0.065,-0.0326 ± 0.029,-0.0342 ± 0.042,-0.0489 ± 0.054,-0.068 ± 0.04,-0.0358 ± 0.074,-0.0519 ± 0.049
N[C@@H]1C[C@H]1c1ccccc1 [Tranylcypromine (2-PCPA) HCl],-0.0329 ± 0.49,0.0386 ± 0.02,-0.00732 ± 0.31,-0.69 ± 1,0.0104 ± 0.19,0.00343 ± 0.14,0.195 ± 0.19,-0.0239 ± 0.12,-0.0275 ± 0.14,-0.029 ± 0.034,0.0446 ± 0.07,0.0163 ± 0.036
O=C1CC[C@@]2(O)[C@H]3Cc4ccc(O)c5c4[C@@]2(CCN3CC2CC2)[C@H]1O5 [Naltrexone HCl],,,,,0.0198 ± 0.084,0.00879 ± 0.072,0.0547 ± 0.074,0.0348 ± 0.11,-0.00767 ± 0.035,-0.00496 ± 0.046,0.019 ± 0.08,0.0347 ± 0.066
"CN1CCc2cc3c(cc2C1C1OC(=O)c2c1ccc1c2OCO1)OCO3 (single isomer, unassigned; (+)) [(+)-Bicuculline]",0.318 ± 0.49,-0.0291 ± 0.21,-0.166 ± 0.52,-0.132 ± 0.15,0.0396 ± 0.045,0.0668 ± 0.066,0.0158 ± 0.026,0.118 ± 0.25,0.0925 ± 0.13,0.0133 ± 0.065,0.031 ± 0.047,0.0202 ± 0.052
O=c1[nH]c2ccc(Cl)cc2c(N[C@@H]2CN3CCC2CC3)c1-c1nc2ccccc2[nH]1,-0.256 ± 0.17,-0.853 ± 0.38,-0.861 ± 0.2,-1.55 ± 0.68,-0.295 ± 0.15,-0.397 ± 0.11,-0.41 ± 0.079,-0.389 ± 0.11,-0.155 ± 0.1,-0.24 ± 0.086,-0.22 ± 0.12,-0.14 ± 0.071
C[C@](O)(COc1ccc(C#N)cc1)C(=O)Nc1ccc(C#N)c(C(F)(F)F)c1,0.0013 ± 0.16,-0.198 ± 0.51,-0.0878 ± 0.28,-0.367 ± 0.29,0.119 ± 0.11,0.159 ± 0.16,0.13 ± 0.21,-0.0835 ± 0.0046,0.0355 ± 0.048,0.0277 ± 0.13,0.0356 ± 0.15,-0.0586 ± 0.049
Cc1sc2c(c1C)C(c1ccc(Cl)cc1)=N[C@@H](CC(=O)OC(C)(C)C)c1nnc(C)n1-2,-0.223 ± 0.3,-0.861 ± 0.47,-1.01 ± 0.083,-0.844 ± 0.31,-0.412 ± 0.037,-0.487 ± 0.045,-0.459 ± 0.0092,-0.453 ± 0.079,-0.256 ± 0.15,-0.296 ± 0.084,-0.254 ± 0.12,-0.257 ± 0.11
CCN(CC)C(=O)c1ccc(C2=CC3(CCNCC3)Oc3cccc(O)c32)cc1,0.27 ± 0.025,0.163 ± 0.16,0.291 ± 0.17,0.194 ± 0.16,0.0838 ± 0.12,0.132 ± 0.037,0.0809 ± 0.14,-0.0392 ± 0.061,0.0526 ± 0.1,0.0187 ± 0.045,0.0656 ± 0.066,-0.0561 ± 0.041
Fc1cc(F)c2c(c1)[C@H]1C=CC[C@H]1C(c1cccnc1)N2 (stereo partly specified) [Golgicide A],0.167 ± 0.26,0.227 ± 0.18,0.339 ± 0.26,-0.22 ± 0.51,0.158 ± 0.28,0.303 ± 0.015,0.0963 ± 0.012,-0.317 ± 0.28,0.267 ± 0.19,0.0661 ± 0.11,0.171 ± 0.27,-0.161 ± 0.18
C[C@@]12N[C@@H](Cc3ccccc31)c1ccccc12 [(-)-MK 801 Maleate],0.127 ± 0.087,-0.377 ± 0.073,-0.702 ± 0.46,-0.936 ± 0.39,0.0174 ± 0.027,-0.238 ± 0.033,-0.438 ± 0.12,-0.488 ± 0.026,0.00825 ± 0.055,-0.0992 ± 0.12,-0.256 ± 0.14,-0.259 ± 0.094
CC[C@@H]1/C=C/C=C/C[C@H](C)[C@H](O)[C@](C)(O)C(=O)[C@H](C)[C@@H](O)[C@H](C)C(=O)[C@H](C)[C@@H](O)[C@H](C)/C=C/C(=O)O[C@H]2[C@@H](C)[C@@H](CC1)O[C@@]1(CC[C@@H](C)[C@@H](C[C@H](C)O)O1)[C@@H]2C [Oligomycin A],-0.662 ± 0.28,-0.706 ± 0.5,-0.946 ± 0.55,-1.24 ± 0.7,-0.266 ± 0.18,-0.3 ± 0.17,-0.316 ± 0.19,-0.335 ± 0.16,-0.204 ± 0.075,-0.231 ± 0.073,-0.213 ± 0.051,-0.223 ± 0.073
"O=[N+]([O-])/C=C/c1ccc2c(c1)OCO2 [MNS (3,4-Methylenedioxy-Œ≤-nitrostyrene, MDBN)]",-0.0156 ± 0.42,0.0613 ± 0.25,0.062 ± 0.21,-0.197 ± 0.41,0.0344 ± 0.069,0.107 ± 0.31,0.000258 ± 0.25,-0.226 ± 0.23,0.0573 ± 0.045,-0.0102 ± 0.063,0.0399 ± 0.09,-0.15 ± 0.16

# Source: the supplement of paper PMC9046079
